The full ranking holds about 33,000 sequences; the median of “E-score (-0.5 to 0.5)” is about -0.021, and the highest 2% start at about 0.32. Some of the results follow.
target: T1, Zap1 (UniProt P47043); experiment: PBM E-score (8-mer binding enrichment) (E-score (-0.5 to 0.5)); higher = stronger / more preferred TF binding; most listed sequences are background and not binding sites; details: protein concentration: 200 nM; construct: GST-full length
T1 sequence: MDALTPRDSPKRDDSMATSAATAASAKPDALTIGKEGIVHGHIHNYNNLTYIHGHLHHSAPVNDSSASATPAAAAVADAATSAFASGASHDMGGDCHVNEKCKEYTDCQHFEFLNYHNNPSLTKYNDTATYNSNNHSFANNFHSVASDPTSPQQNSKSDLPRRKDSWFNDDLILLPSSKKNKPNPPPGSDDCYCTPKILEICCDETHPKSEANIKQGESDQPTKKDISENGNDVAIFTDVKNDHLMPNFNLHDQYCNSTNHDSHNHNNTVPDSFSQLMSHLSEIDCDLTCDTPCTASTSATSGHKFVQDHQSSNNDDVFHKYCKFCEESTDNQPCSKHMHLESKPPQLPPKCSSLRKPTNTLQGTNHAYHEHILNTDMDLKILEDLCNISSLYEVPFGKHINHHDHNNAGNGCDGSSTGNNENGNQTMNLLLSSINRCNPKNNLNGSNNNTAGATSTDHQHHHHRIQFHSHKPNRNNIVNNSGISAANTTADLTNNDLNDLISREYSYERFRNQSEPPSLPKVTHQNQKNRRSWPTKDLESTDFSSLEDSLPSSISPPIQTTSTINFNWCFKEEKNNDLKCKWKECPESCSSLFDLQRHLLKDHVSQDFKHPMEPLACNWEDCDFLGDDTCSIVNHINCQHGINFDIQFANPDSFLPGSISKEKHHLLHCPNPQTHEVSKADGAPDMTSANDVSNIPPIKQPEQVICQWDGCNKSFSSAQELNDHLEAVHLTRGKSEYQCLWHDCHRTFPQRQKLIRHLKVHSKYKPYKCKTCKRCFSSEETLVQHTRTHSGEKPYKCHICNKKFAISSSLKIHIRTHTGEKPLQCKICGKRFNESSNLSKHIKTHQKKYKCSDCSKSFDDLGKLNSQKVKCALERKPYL
In short: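 Masliner-normalised scans of fluorescent anti-GST signal were the basis for scoring. That signal came from GST-tagged yeast transcription factors applied at about 100-200 nM to double-stranded universal all-10-mer Agilent arrays on fresh or once-stripped slides. Each ungapped eight-base word, pooled with its reverse complement, received an E-score from the Universal PBM Analysis Suite.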

Sequence	PBM E-score
CACAAGAA	0.23
AAGCAAAC	-0.0029
AGGATGGG	-0.247
AGTTTTCA	0.015
AAGCTTCT	-0.247
CGTTGGAA	-0.0543
AGTAACCG	0.355
CCTCCCCA	0.0296
AACATTGC	-0.0846
CGTAGGGA	-0.191
AACTCAGC	-0.115
CAATGAAA	-0.0117
ACCATTCC	0.00682
ACGGACAG	-0.202
AGCAAGGG	0.191
GAGCCGGA	-0.248
CTTTGTAA	0.232
AAAGAACG	0.0984
AACGTACC	-0.034
ATACAATA	0.125
ACCCTCGC	0.267
CATGAGAG	0.0645
AGGCGTTG	-0.104
ACACCTCC	-0.272
GTGGATCA	-0.124

Sequence	PBM E-score
ACCAATCT	0.0905
CTGATGAC	0.00349
GCGGATGA	-0.0325
GGAATTTA	0.0666
AACCTCCC	0.155
CGGTGATA	0.014
CTATCGCC	-0.222
AAGCAACT	-0.00952
CCGTTAGC	-0.12
CGCTAATC	-0.0409
CAGATTCC	-0.00551
AAAAAACG	0.218
AAATCGTG	0.14
TACCGCGA	0.328
GTGAAAGA	0.0877
AGTAGTTG	0.112
CTGACCTC	0.194
AGGCAGCG	-0.291
ATCAGAAG	-0.0955
CACCTCAC	0.155
CTTGTATC	0.00927
GCCGGACC	-0.173
GATGTCCA	0.00103
TGAGTGAA	-0.0791
GTAGGGCA	-0.143

Sequence	PBM E-score
ATCCCTTG	-0.0496
GAGATACC	0.141
CAAGGAAG	-0.0885
ATCCCACA	-0.135
ACGGGGTC	0.218
ATTCAGCC	-0.152
CGAAAGAC	-0.221
GGTGTAAC	0.262
ACGGCGCA	-0.0664
ACCGTTGG	0.159
CATTAGTC	-0.104
ACATGAGG	0.00666
CTTTTACA	0.101
GCAGGCCA	-0.0943
GAATATGA	0.0388
AGGGTCTA	0.145
CCCAAACG	0.053
GAAAGAGC	-0.158
ATGCACGG	-0.128
CCCACGGC	-0.0955
CGCTTCAG	-0.0307
CATCTTAA	-0.0359
GCACCTCA	0.152
AACCTGAG	0.181
CTCAACGC	-0.162

Sequence	PBM E-score
CGAGGTAG	0.0649
AAATGACG	0.111
ACAACCCA	0.286
AGTGCATC	-0.265
AAGGGAGG	-0.187
CGTCGACG	-0.165
GTAGTTGA	0.2
AAGGCGGA	-0.0506
ACACACAG	0.122
AGTGCACC	-0.136
CATGCGGA	-0.0937
CCAGGATA	0.164
ACGTTATA	0.137
CGCACCCA	-0.0129
CAGCACGC	-0.229
ATGATGAG	-0.0756
ACAACGGC	0.0141
GTCTACTA	0.178
CAAAATAG	-0.196
AGCGACAG	-0.0664
AGCATGGA	-0.212
CATCAAGA	0.0759
AACGTAAC	0.171
AAAAGTCT	-0.111
TGAATACA	0.0584

Sequence	PBM E-score
ATATATCG	0.19
AAGTCGTA	-0.156
CAGACCTC	-0.0696
ACTCCCTG	0.00959
GGGGGCAA	-0.293
AGTCAACA	0.055
CAGGGCAA	-0.082
GTACAATA	0.105
TACGGCGA	-0.0194
GGCGGCGA	-0.052
AGAGCATC	-0.253
CCGAGTAC	-0.181
CCTATAAC	0.171
CACCCGAG	0.124
ACTTGGCT	-0.141
AGCTATTC	-0.233
CTAACAGA	0.0933
GGCGCTCA	-0.256
GATCTCCC	-0.288
ACAACAAT	0.0383
ATGCAGTC	-0.156
AGCTCCTG	-0.231
AATAAAGG	0.204
TGAGTTAA	0.054
AGGGCACC	0.04

Sequence	PBM E-score
CCCAAGAG	0.0665
AGAAGCCG	-0.176
GTGGTGTA	0.0957
AGCGACTC	-0.17
GCTAGTCA	-0.181
CGCAGAGA	-0.127
GGTGAAAA	0.188
AATAAATA	0.248
AGAGGGGC	-0.0969
GCTGTAAC	0.235
AATCACCC	0.307
AAAGATAC	0.0365
ACCGCCTC	0.105
CAGATTTA	0.19
ACGGGACA	0.0113
AAGGCAAC	0.0268
CTATTCAG	0.11
AAGGTCGC	0.193
ACAGATCT	-0.0411
AATTGAGG	0.219
AAGATCCT	0.0919
GCCCAAGA	-0.197
ATATATCA	0.0489
GTGGTCCA	0.153
GTGCATAA	0.0793

Sequence	PBM E-score
ACCATGAA	0.221
ACCAAACT	0.234
GCTTCCAC	-0.232
AGTTGGCC	-0.0785
ATGCCAGA	0.029
CGGGCGCC	-0.225
ATTAGATG	0.19
CATTCAAC	0.101
TAAGGGAA	0.00584
CATCCGGC	-0.256
TTAAAGAA	0.223
CGTTATAC	-0.00572
CCTCGGCC	0.0982
ACACCCAC	0.0526
CAAATAAG	-0.0503
AGTAACTA	0.219
AGACACTC	-0.199
AGAACCGC	0.209
TCACTAGA	0.0322
CTTAGTCC	-0.156
CGTGTGGA	-0.158
TAGCCGAA	0.00265
TACCGCTA	0.152
CAGTAATG	0.0599
ATACTCTA	-0.0192

Sequence	PBM E-score
GCAGTAAC	0.0575
AACCCGTC	0.147
GTCGCCGA	-0.169
ACTTCAAC	0.0925
AAAAACTA	0.175
GAGACACA	0.0212
GACAAATA	-0.0476
AGGACTCG	-0.134
CAGGGATC	-0.155
ACCCGCAC	0.217
TGATTGCA	0.0102
AGGATTGC	-0.224
AAATCCCG	-0.05
CAGACGGG	-0.292
ATGATATC	0.00647
CGCCGCTC	-0.17
ATGAGCCA	-0.11
CCCCACGC	-0.0232
GGATTAAC	-0.0122
CCCGCCTA	-0.0132
AAGCCCGA	-0.16
AATAAGAC	-0.0873
CGTCTAGC	-0.21
CGAGAATC	-0.206
ATCGACCA	-0.143

Sequence	PBM E-score
ACACAATC	0.00143
TGTCAGAA	-0.00066
GCTACAAA	0.0887
ATGCAACC	0.243
ACGTTGAA	0.0592
CATGCACG	-0.246
AAGGATGA	-0.164
CACTATTC	0.127
CTGGACCA	-0.0935
AAGAGATG	-0.16
AAGTTCGG	0.0638
GGTGCCAA	0.00512
ACACTTGG	0.0219
ATCGGCTC	-0.0563
ACTTCGAG	0.0218
AGGTAGGG	0.219
AAACATCA	0.0836
GACCTTGA	0.34
AGACGTTA	-0.175
AGAATTCC	0.00254
CTAGCTCA	-0.147
AGTATGCC	-0.175
CATGGATC	-0.0514
AGGAGCAA	-0.151
CTGGTCGA	-0.211

Sequence	PBM E-score
AATTCGAA	0.0449
GATAGTTA	0.0641
ACGGTTTC	-0.0123
ACGTCTCA	-0.0794
GCACATAC	-0.275
CACGTGAG	-0.116
GCCCGATA	-0.109
CCGCAAAG	0.046
CGTAGTAA	-0.07
AATCCAGG	0.0899
AATGCGAT	-0.162
ACAGACGA	-0.102
TCCGAGCA	-0.0445
CCAAAGGC	-0.141
ACCTAGCA	0.036
AAGATATG	0.127
GAAGGCAA	-0.0731
AGCCAATC	-0.277
GCTATGAC	-0.129
ACGTCAGC	-0.143
CCGTCACG	-0.0299
GAGTGGAA	-0.0794
AGGGCCAA	-0.187
AGCCCATC	-0.153
ACGACACT	-0.0276

Sequence	PBM E-score
ACAGTCGC	-0.115
CCACTCTC	-0.14
AGGCTCGA	-0.18
CCGACCAA	-0.0126
GGGCAGCA	-0.212
GCAAGACA	-0.115
CTGTCGAC	-0.0341
GTTAATAA	0.232
CCACGGCG	0.00048
TGGCCCAA	0.0284
ACGAGTGG	-0.0531
AGTGATTG	-0.0184
CCGGTGGA	-0.19
ACGTCGTA	-0.287
ATTCTAGA	0.0739
AAGGTAGG	0.179
GAGGAAAA	-0.0396
CGATCATA	0.0491
GGACGCCC	-0.25
CAGGTCAA	0.0665
TGGTGAAA	-0.052
AAACACTG	0.154
AACGGTCT	0.0201
CCAGGTCG	-0.102
TAAAACCA	0.0656

Sequence	PBM E-score
GCATGCAA	-0.105
ATCTGCGC	-0.22
ACGCGCTA	0.0844
CAGGCAAG	-0.114
CGCCGCCC	-0.0572
CTGCAGCA	-0.182
CTTCAGTA	0.0193
GGGTCTAC	0.183
GGTCAGGA	0.305
GGATAGCA	-0.13
CTTCCTAC	-0.279
CTGTTAGA	-0.0791
CTAACTTA	-0.0108
ATAGTGTG	-0.106
GAACCAGC	0.154
GCACCTGC	-0.16
CACGGATC	-0.183
ACCTAAAT	0.183
ATCGCAGA	-0.134
ACTAAGCG	-0.156
GTGAGTGA	-0.147
ACCCTAAC	0.414
GCCAAAGC	-0.213
ATCGTTTG	0.0376
AATGATAG	-0.0146

Sequence	PBM E-score
GACTACAC	-0.139
AAATGGTC	0.207
TACCGACA	-0.00804
ATCTCAGC	-0.0588
CGCATTCC	-0.379
AAAGCCAT	-0.0283
CACAGGGC	-0.142
CACGGCAA	-0.14
AACATCAG	-0.0261
TACGGAAA	0.0818
CGTGCCCA	-0.0639
GCGAGCCC	-0.109
AATAGTCG	-0.0275
CGGTAACA	0.253
CCTAGATA	-0.0485
GCCCGTGA	-0.131
CTGTAGGA	-0.00692
AGAGCCAC	-0.0676
AAGCACTT	-0.0713
AAGAGGCG	-0.0798
GCCTAGCC	-0.172
CGTGACCA	0.35
AGCTCATA	-0.0535
ACACAACT	0.108
AGCATTGA	-0.157

Sequence	PBM E-score
TTCGTAAA	-0.0151
AGGGAGCA	-0.368
AGTGCGCG	-0.185
GTGATCAA	0.128
CTAATGAG	-0.0274
ATGTTACC	0.23
ATAGCACG	-0.242
CCGCACGA	0.0224
CCCATGAC	0.165
AAGGTATT	0.199
AAAACGTT	0.0662
ACCGGATA	0.0737
CAATAGTC	-0.102
GGCAGGCA	-0.189
GTGGACTA	0.118
CCTCAAGC	-0.133
AAGCGGTG	-0.229
GTGCGGGA	-0.306
ACGCGCCT	-0.156

From the supplement of paper PMC3334620
